According to PubChem BioAssay AID1345083 (National Center for Advancing Translational Sciences (NCATS), 2018):
Out of some 94,000 compounds screened, about 6,200 (6.6%) were called active. This list was built around the results that the source calls inconclusive (neither active nor inactive); the mix of calls is not that of the screen. The call rests on the fitted dose curve; in most records, active means well fitted inhibition curve with a large enough effect; inconclusive means small, poorly fitted or top-dose-only effect; inactive means flat fitted curve, though single readings scatter. Potencies beside an inconclusive call are fits to weak or partial responses and may not hold up.

Assay: Cytotoxic Profiling in HEK 293 Cell Line of Diverse Libraries Using Quantitative High-Throughput Screening; further: nearly all actives have a fitted effect of over 60% in size
Details: HEK 293 viability, ATP luminescence (CellTiter-Glo), 48-72 h; activity change, negative = cytotoxicity: at 115 µM (top of the series) unless noted; series mostly up to 115 µM
Method in brief: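 CellTiter-Glo luminescence (cellular ATP) was read after 48 or 72 hr of compound exposure at 37 degree Celsius. Cells were HEK 293 plated at 250 cells/well.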
On the % scale 0 is the no-effect control and ±100 the full control effect; potency means the concentration at half of the fitted maximal effect; tags describe the fitted curve by direction and shape.

| Compound | Potency | activity change, negative = cytotoxicity | outcome |
| --- | --- | --- | --- |
| O=C(CCc1c[nH]c2ccccc12)NC1CCCc2c1[nH]c1ccc(F)cc21 (stereo not given) | inconclusive: 8.91 µM [inhibitor, full curve, poor fit] |  |  |
| O=C(Nc1cccc(-c2ccc(N3CCOCC3)nn2)c1)Nc1ccccc1F | active: 17.8 µM |  |  |
| COc1ncccc1-c1ccnc(-c2nnc(C)n2C2CCCCC2)c1 | inconclusive: 79.4 µM [inhibitor, partial curve] |  |  |
| CCOc1ccccc1CN1C[C@@H](CO)[C@H](C(=O)N(C)C)C1 | inconclusive: 89.1 µM [inhibitor, single point] |  |  |
| O=C(NC1CCN(c2nccc(Nc3ccccc3F)n2)CC1)c1ccccc1F | inconclusive: 50.1 µM [inhibitor, partial curve, poor fit] |  |  |
| COCCNC(=O)CCCN1C(=O)COc2ccc(C(=O)COc3cc(C)ccc3Cl)cc21 | inconclusive: 89.1 µM [inhibitor, single point] |  |  |
| COc1ccccc1N1CCN(C(=O)Cn2ccn3nc(-c4ccc(F)cc4)c(CO)c3c2=O)CC1 | inconclusive: 56.2 µM [inhibitor, partial curve, poor fit] |  |  |
| Cn1ncc2c(C(=O)N3CCN(c4ncccn4)CC3)cc(-c3ccccc3F)nc21 | inconclusive: 56.2 µM [inhibitor, partial curve, poor fit] |  |  |
| CS(=O)(=O)N1CCCCC1c1nc(CCOCC2CCCC2)no1 (stereo not given) | inconclusive: 31.6 µM [inhibitor, partial curve] |  |  |
| CC(C)c1noc(-c2cn(C3CCN(C(=O)C4(c5ccccc5)CC4)CC3)nn2)n1 | inconclusive: 8.91 µM [inhibitor, full curve, poor fit] |  |  |
| Cc1noc(-c2ccc(OC(F)(F)F)cc2)c1C(=O)NCCc1ccc(F)cc1 | inconclusive: 11.2 µM [inhibitor, full curve, poor fit] |  |  |
| Cc1ccc(C(=O)N2CCC(C(=O)N3CCC(c4nc5ccncc5[nH]4)C3)CC2)cc1 (stereo not given) |  | inactive: -6.99% |  |
| CC(C)c1nnsc1Cn1ncc(N(C)CCc2ccccc2)cc1=O | active: 89.1 µM |  |  |
| CCNC(=O)c1cccnc1OC1CCN(C(=O)c2ccccc2Cl)C1 (stereo not given) |  | inactive: 13.4% |  |
| COc1cccc(CNC(=O)c2ccc3nnc(-c4ccc(F)cc4)n3c2)c1 | inconclusive: 89.1 µM [inhibitor, single point] |  |  |
| O=C(C1CCCN(Cc2cccc(-c3ccc(F)cc3F)c2)C1)N1CCCCC1 (stereo not given) | active: 31.6 µM |  |  |
| O=C1NCCCCCCN(C(=O)C2CCCC2)[C@H]2C[C@H](C(=O)N3CCN(c4ccccn4)CC3)C[C@@H]12 |  | inactive: -20.7% |  |
| O=C(CC1CCCN(c2cn[nH]c(=O)c2)C1)NCCCc1ccccc1 (stereo not given) |  | inactive: 1.73% |  |
| CC(C)CN1C(=O)COC[C@@H]1[C@H](O)c1ccc(NC(=O)c2ccc(C#N)cc2)cc1 | inconclusive: 126 µM [inhibitor, single point] |  |  |
| Cc1ccc(Nc2ccnc(N3CCN(C(=O)c4cccc(Cl)c4)CC3)n2)cc1 | inconclusive: 25.1 µM [inhibitor, full curve, poor fit] |  |  |
| CC(C)C[C@@H]1N[C@H](C(=O)N2CCC(O)(c3ccccc3)CC2)Cc2cn(C)c3cccc1c23 | inconclusive: 50.1 µM [inhibitor, partial curve, poor fit] |  |  |
| CCN1CCC(CC(=O)N2CCC3(CC2)NCCc2c3[nH]c3ccccc23)CC1 | inconclusive: 50.1 µM [inhibitor, partial curve, poor fit] |  |  |

| Compound | Potency | activity change, negative = cytotoxicity | outcome |
| --- | --- | --- | --- |
| CN(C)C(=O)c1ccc(-c2nnc3ccc(NC(=O)C4CCC4)cn23)cc1 | inconclusive: 70.8 µM [inhibitor, partial curve, poor fit] |  |  |
| Cc1ccccc1S(=O)(=O)N1CCC(CCC(=O)O)CC1 |  | inactive: -0.527% |  |
| COCc1noc([C@@H]2CN(Cc3cccc(Cl)c3F)C[C@H]2C(N)=O)n1 | inconclusive: 100 µM [inhibitor, single point] |  |  |
| COc1cc(F)ccc1-c1cc2c(ccn2C)c(C(=O)NCc2cccnc2)n1 | inconclusive: 70.8 µM [inhibitor, partial curve] |  |  |
| O=C(Cc1ccc(F)cc1)Nc1ccc2ncnc(N3CCCCC3)c2c1 | inconclusive: 35.5 µM [inhibitor, partial curve, poor fit] |  |  |
| COCCCNC(=O)c1ccc2nnc(-c3ccccc3OC)n2c1 |  |  | inactive [at 172 µM] |
| CCN(CC)C(=O)N1CCCCC1c1nc(CCOc2ccc(F)cc2)no1 (stereo not given) | inconclusive: 50.1 µM [inhibitor, partial curve, poor fit] |  |  |
| COc1cccc(CN2Cc3nc(-c4ccccc4)ccc3OCC2=O)c1 | active: 79.4 µM |  |  |
| COCCC(=O)N1CCC2(CC1)CC(Cc1nc(-c3ccncc3)no1)CCO2 (stereo not given) | inconclusive: 56.2 µM [inhibitor, partial curve, poor fit] |  |  |
| COc1ccc(-c2cc(-c3cnn(C)c3)cn3cncc23)cc1 | inconclusive: 35.5 µM [inhibitor, full curve] |  |  |
| CN1CCc2c([nH]c3ccccc23)C12CCN(C(=O)c1nccc3ccccc13)CC2 | inconclusive: 25.1 µM [inhibitor, full curve, poor fit] |  |  |
| O=C1NCCCc2[nH]c(-c3cc(-c4cccc(F)c4)no3)nc21 |  | inactive: -34.3% |  |
| Cc1nc2c(c(-c3ccc(Cl)cc3)n1)CN(C(=O)c1ccc(C(F)(F)F)cc1)CC2 | inconclusive: 79.4 µM [inhibitor, partial curve] |  |  |
| Cn1ncc2c(C(=O)NCCc3ccccn3)cc(-c3cccc(C(F)(F)F)c3)nc21 | active: 31.6 µM |  |  |
| CC(NC(=O)c1coc(COc2ccc3c(c2)OCO3)n1)c1ccc2[nH]ccc2c1 (stereo not given) | inconclusive: 17.8 µM [inhibitor, full curve] |  |  |
| O=C(CCCc1c[nH]c2ccccc12)NCC(=O)N1CCCCCCNC(=O)CC1c1ccccc1 (stereo not given) | inconclusive: 56.2 µM [inhibitor, partial curve, poor fit] |  |  |
| CCNC(=O)N1CCC(Cc2ncc(C)n2Cc2ccc(F)cc2)CC1 |  | inactive: 1.41% |  |
| CC(C)NC(=O)c1cc(-c2ccc(Cl)nc2)nc2c1cnn2C | inconclusive: 89.1 µM [inhibitor, partial curve, poor fit] |  |  |
| Cc1cnc(C(=O)N2CCC3(CC2)CC(N(Cc2ccc(F)cc2)C2CC2)CCO3)cn1 (stereo not given) | inconclusive: 89.1 µM [inhibitor, single point] |  |  |
| O=C(CN1CC2CC(C1)[C@H]1CCCC(=O)N1C2)NCCCN1CCCc2ccccc21 (stereo not given in full) | inconclusive: 50.1 µM [inhibitor, partial curve, poor fit] |  |  |
| COc1ccc(Cc2nc3nccc(-c4ccc(OC)c(OC)c4)n3n2)cc1 | inconclusive: 89.1 µM [inhibitor, single point] |  |  |
| Fc1cc(F)cc(Cc2nc3nccc(-c4ccccc4)n3n2)c1 | inconclusive: 39.8 µM [inhibitor, full curve, poor fit] |  |  |

| Compound | Potency | activity change, negative = cytotoxicity | outcome |
| --- | --- | --- | --- |
| CCc1nc(-c2c3n(c(=O)n(CC(=O)Nc4cccc(Cl)c4C)c2=O)CCCC3)no1 |  | inactive: 16% |  |
| COc1ccccc1C(=O)N1CCN(Cc2ccccc2-c2cccnc2)CC1 | inconclusive: 56.2 µM [inhibitor, partial curve, poor fit] |  |  |
| COc1ccc(CCNC(=O)CCn2ccn3nc4c(c3c2=O)CCCC4)cc1OC |  | inactive: 1.31% |  |
| COc1ccc([C@H]2C[C@@H](O)[C@@H](O)[C@@H]2NC(=O)c2cc3ccccc3s2)cc1 | active: 79.4 µM |  |  |
| Cc1cc(C)n(CC(=O)N2CCC(Cc3ccc(CN4CCN(C)CC4)cc3)CC2)n1 | inconclusive: 50.1 µM [inhibitor, partial curve, poor fit] |  |  |
| COc1ccccc1-n1c(=O)c(C(=O)NC2CC2)nc2cccnc21 |  | inactive: -9.13% [at 172 µM] |  |
| O=C(NC1CCCN(c2cc(-c3ccc(Cl)cc3)[nH]n2)C1)c1ccc2c(c1)OCO2 (stereo not given) | active: 44.7 µM |  |  |
| Clc1ccccc1C1Cn2cnc(-c3nc(-c4ccncc4)no3)c2CO1 (stereo not given) | inconclusive: 50.1 µM [inhibitor, partial curve, poor fit] |  |  |
| c1ccc(-c2noc(-c3cncnc3N3CCN(C4CCCCC4)CC3)n2)cc1 | inconclusive: 56.2 µM [inhibitor, partial curve, poor fit] |  |  |
| O=[S+]([O-])(c1cccs1)N1CC(N2CCc3ccccc32)C1 | inconclusive: 100 µM [inhibitor, partial curve, poor fit] |  |  |
| c1cnc2nc(C3CCCCN3)[nH]c2c1 (stereo not given) | inactive |  |  |
| CC(C)Oc1ccccc1CN1C[C@@H](CO)[C@H](c2ccncc2)C1 | active: 39.8 µM |  |  |
| O=C(NCCCN1CCCC1=O)c1csc(N2CCN(c3ccccc3F)CC2)n1 | inconclusive: 50.1 µM [inhibitor, partial curve, poor fit] |  |  |
| CC(C)CCN1CCC(N2CCN(S(=O)(=O)c3cc(F)cc(F)c3)CC2)C1=O (stereo not given) | inconclusive: 79.4 µM [inhibitor, partial curve, poor fit] |  |  |
| CCCn1ncc(NC(=O)c2cccc(CN3CCC[C@@H]3COC)c2)n1 |  | inactive: -11.5% |  |
| O=C(CC1CCCN(c2cnn(CC3CC3)c(=O)c2)C1)NCc1cc(F)cc(F)c1 (stereo not given) | inconclusive: 44.7 µM [inhibitor, partial curve, poor fit] |  |  |
| O=C(Nc1cc(-c2cccnc2)nn1-c1ccccc1)c1ccccc1 | inconclusive: 89.1 µM [inhibitor, single point] |  |  |
| COc1ccc(NC(=O)Cn2c(C)cc3nc4n(c(=O)c32)CCCC4)cc1Cl |  | inactive: -5.66% |  |
| O=C(C1CC1)N1CCC(C(=O)N2CCC(N3Cc4ccccc4C3=O)CC2)CC1 |  | inactive: -10.3% |  |
| COc1cccc(CN2C[C@@H](CO)[C@H](C(=O)NC3CC3)C2)c1OC |  | inactive: -20.8% |  |
| COc1ccc(C(=O)N[C@@H]2CN(Cc3ccccc3)C[C@H]2CO)cn1 | active: 28.2 µM |  |  |
